# From PMC6919601, “Identification of Plasmodium dipeptidyl aminopeptidase allosteric inhibitors by high throughput screening” (PLoS ONE, 2019)
# “And” between values parts separate entries of the source, which are not always exact repeats. Equal values may be shown once. Among all 110,000 compounds or so, about 230 (0.21%) showed an effect of 50% or more. Some of the results follow.
# Target: DPAP1 (Plasmodium falciparum, UniProt Q8IIJ9)
# Assay: primary screen, percent inhibition; read by cleavage of a fluorogenic dipeptide substrate; higher = more effect of the substance
# Set-up: species or system P. falciparum D10 trophozoite lysates; single well
# 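Note: 30 min substrate incubation versus DMSO and 10 µM JCP410 controls.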
# Chain of DPAP1 (Q8IIJ9 whole entry, looked up): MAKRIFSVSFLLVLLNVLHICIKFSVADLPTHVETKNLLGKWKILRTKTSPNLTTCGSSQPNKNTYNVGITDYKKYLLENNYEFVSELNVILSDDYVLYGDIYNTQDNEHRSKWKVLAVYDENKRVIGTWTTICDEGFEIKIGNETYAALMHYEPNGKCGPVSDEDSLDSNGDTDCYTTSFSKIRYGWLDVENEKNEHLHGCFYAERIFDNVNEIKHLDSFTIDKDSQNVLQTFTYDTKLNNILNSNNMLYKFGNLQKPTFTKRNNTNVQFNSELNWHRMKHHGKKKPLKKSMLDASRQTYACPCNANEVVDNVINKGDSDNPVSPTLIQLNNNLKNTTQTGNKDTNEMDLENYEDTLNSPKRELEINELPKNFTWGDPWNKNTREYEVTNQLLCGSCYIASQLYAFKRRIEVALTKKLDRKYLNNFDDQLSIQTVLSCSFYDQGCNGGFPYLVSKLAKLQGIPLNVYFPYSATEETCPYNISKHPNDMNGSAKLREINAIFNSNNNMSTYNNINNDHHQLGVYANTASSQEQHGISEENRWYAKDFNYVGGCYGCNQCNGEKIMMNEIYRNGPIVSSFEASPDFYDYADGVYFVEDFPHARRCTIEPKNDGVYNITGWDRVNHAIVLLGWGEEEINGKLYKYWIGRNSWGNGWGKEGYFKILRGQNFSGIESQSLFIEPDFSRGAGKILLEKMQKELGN
row,Compound,% Inhibition @ 10 uM
1,Cc1ccc(SCCNC(=O)CN(c2cc(C(F)(F)F)ccc2Cl)S(C)(=O)=O)cc1,2.44%
2,O=C1C2C(c3ccccc3)OC3(C(=O)c4ccccc4C3=O)C2C(=O)N1c1ccc(Cl)cc1 (stereo not drawn),6.52%
3,Cc1ccc2c(Cl)c(C(=O)Nc3ccc(N(C)C)cc3)sc2c1,4.52%
4,COc1ccc(NC(=O)C23CC4CC(C2)CC(n2cnc(Br)n2)(C4)C3)cc1Cl,-11.6%
5,COc1ccc(CNC(=O)c2cc(=O)c3cc(C)c(C)cc3o2)cc1,1.9%
6,Cc1ccc2c(Cl)c(C(=O)Nc3nc(C)cs3)sc2c1,-2.45%
7,Cc1ccc(-c2c(N3CCN(C)CC3)c(=O)c2=O)cc1,-1.11%
8,COc1cccc(OC)c1C(=O)Nc1ccc(C(=O)O)cc1,3.9%
9,O=C(c1ccc(NS(=O)(=O)c2cccc(C(F)(F)F)c2)cc1)N1CCCCCC1,-1.57%
10,N=C1SCCN1CC(=O)c1ccccc1,-8.3%
11,O=C(Nc1ccccc1NC(=O)c1cccnc1)c1cccnc1,0.389%
12,O=C(O)C1CCN(c2cnccn2)CC1,-3.08%
13,Cc1nn(-c2ccc(Br)cc2)c(O)c1/C=N/c1ccc(S(=O)(=O)N(C)C)cc1,2.08%
14,NC(=O)c1cc(S(=O)(=O)NCc2cccnc2)cs1,-2.26%
15,CCCCc1ccc(NC(=O)CC(C)=O)cc1,-2.51%
16,CS(=O)(=O)C1=NN2C(=N)/C(=C\c3cn(Cc4ccccc4)c4ccccc34)C(=O)N=C2S1,-1.58%
17,Cc1cc(C)nc(C(=N)Nc2nc(-c3ccccn3)cc3ccccc23)n1,-0.994%
18,O=C(CC1CCC1)Nc1ccc2c(c1)oc1ccccc12,17.5%
19,Cc1cc(C(=O)NC2CCN(Cc3ccccc3)CC2)c2c(C)nn(-c3cccc(Cl)c3C)c2n1,2.52%
20,Cc1cc2nc(NC(=O)CCCC(=O)O)sc2cc1C,-5.07%
21,Cc1nn(C(C)C(=O)N2CCN(C)CC2)c(=O)c2nn(-c3ccccc3)c(C)c12 (stereo not drawn),-7.76%
22,CCN(CC)CCN(C(=O)c1ccc(C(C)=O)cc1)c1nc2ccc(C)cc2s1,-1.07%
23,C=CCn1c(C)c(C=C2C(=O)NC(=O)NC2=O)c2ccccc21,3.66%
24,CCCOc1ccc(CNC(=O)CCCn2ncn3c(cc4occc43)c2=O)cc1,-7.54%
25,O=C(Nc1cccc(NC(=O)c2ccccc2F)c1)c1ccccc1F,2.08%
26,COc1ccc2nc(N3CCC(O)(c4ccc(Br)cc4)CC3)cc(C)c2c1,15.8%

row,Compound,% Inhibition @ 10 uM
1,COc1cc(NC(=O)c2ccccc2-c2ccccc2)cc(OC)c1OC,-0.545%
2,Cc1noc(C)c1Cc1c(C)noc1C,1.24%
3,COc1cccc(OCCCCc2c(C)n[nH]c2C)c1,-0.833%
4,CC(C)c1ccc(S(N)(=O)=O)cc1,-3.48%
5,CCOC(=O)c1c(-c2ccc(C)cc2)csc1NC(=O)c1nc(S(=O)(=O)CC)ncc1Cl,-4.87%
6,CCO/C(O)=C1\C(CC)=NC2=C(C(=O)CC(C)(C)C2)C1c1ccc([N+](=O)[O-])cc1 (stereo not drawn),0.716%
7,Cc1ccc(-c2[nH]c(-c3ccc(F)cc3)nc2SCC(=O)Nc2nccs2)cc1,-5.27%
8,CNS(=O)(=O)c1cn(CC(=O)N(C)C2CCCCC2)cc1S(=O)(=O)NC,-2.87%
9,CCn1c2ccccc2n2c(S(=O)(=O)Cc3ccccc3)nnc12,-0.666%
10,Oc1ccc(O)c(CN2CCCCCC2)c1,5.68%
11,CN(C)CCOC(=O)c1c[nH]c2ccccc12,4.18%
12,CCOc1ccc(C2=CC(c3ccccc3OC(F)F)n3nnnc3N2)cc1Cl (stereo not drawn),3.32%
13,CN1CCN(CCCNC(=O)CSCc2cnn(-c3ccccc3)c2-n2cccc2)CC1,5.23%
14,CCOC(=O)c1cc(-c2ccc(F)cc2)n(CC(=O)Nc2ncccc2C)c1C,1.47%
15,CC(CCc1ccccc1)NC(=O)C1C2C=CC3(CN(Cc4cccs4)C(=O)C13)O2 (stereo not drawn),1.07%
16,CCOCCCNC(=O)C1CCCN(S(=O)(=O)N(C)C2CCCCC2)C1 (stereo not drawn),-1.09%
17,CCC(CC(NC(=O)OCc1ccccc1)C(=O)NCC#N)c1ccccc1 (stereo not drawn),-3.48%
18,CCCCCOc1ccc(C2C(C#N)=C(N)Oc3[nH]nc(C)c32)cc1OC (stereo not drawn),-1.16%
19,CC(=O)c1cccc(NS(=O)(=O)c2ccccc2F)c1,-4.39%
20,N#CC1=C(N)OC2=C(C(=O)CCC2)C1c1ccccc1Cl (stereo not drawn),-0.0372%
21,c1ccc(-c2ccc(CN3CCC(N4CCCCC4)CC3)cc2)cc1,-1.75%
22,COc1nc(N(CC(N)=O)S(=O)(=O)c2ccccc2)nc(C)c1Cl,-7.33%
23,COc1ccccc1NC(=O)C1=C(C)NC(SC)=C(C#N)C1c1ccco1 (stereo not drawn),2.45%
24,Cc1cc(C)c2c(-n3cccc3)c(C(=O)N3CCC(C(=O)O)CC3)sc2n1,1.63%
25,O=C1C=CC(=NS(=O)(=O)c2ccc(Cl)cc2)C=C1,-5.63%
26,COc1ccc(OCCn2c(=N)n(C)c3ccccc32)cc1,3.53%

row,Compound,% Inhibition @ 10 uM
1,Cc1c2cnn(CC(=O)NCC(C)c3ccccc3)c(=O)c2c(C)n1Cc1ccccc1 (stereo not drawn),-0.447%
2,Cc1cc(C)c(NC(=O)CN(C2CCCCC2)C2CCCCC2)c(C)c1,-0.415%
3,CC1(C)C=Cc2cc3ccccc3cc2O1,-4.76%
4,N#CC(NC(=O)[C@H](CS(=O)(=O)Cc1ccccc1OC(F)F)NC(=O)N1CCOCC1)c1cccs1 (stereo partly drawn),-4.82%
5,CC(Oc1ccccc1Cl)C(=O)Nc1ccccc1C(N)=O (stereo not drawn),4.31% and -1.44%
6,Cc1ccc(C)n1-c1ccc(CC(=O)O)cc1,-2.26%
7,COc1cccc(NC(=O)CN(c2cc(Cl)ccc2C)S(C)(=O)=O)c1,-5.67%
8,Cc1ccc(C(C#N)NC(=O)C(CC(=O)N2CCOCC2)CS(=O)(=O)Cc2ccccc2)o1 (stereo not drawn),-3.49%
9,O=C(CSc1nc2ccccc2s1)Nc1ccc(F)c(F)c1,1.8%
10,c1ccc(CNc2c3c(nc4ccccc24)CCC3)cc1,2.44%
11,CC(=O)c1ccc(NC(=O)Nc2sc(NS(=O)(=O)c3ccccc3)nc2C)cc1,-3.78%
12,CCN1CCCC1CNC(=O)c1ccc2c(c1)sc1nc(-c3cccc(OC)c3)cn12 (stereo not drawn),3.24%
13,O=[N+]([O-])c1ccc(CN2CCN(c3cccc(Cl)c3)CC2)cc1,4.67%
14,CCOc1ccc(C2CC(=O)n3nc(-c4cccc(C)c4)nc3S2)cc1 (stereo not drawn),-2.75%
15,CC(C)C(C(=O)Nc1ccc(S(=O)(=O)Nc2nccs2)cc1)N1C(=O)c2ccccc2C1=O (stereo not drawn),10%
16,O=C(c1ccccc1[N+](=O)[O-])N1CCN(c2ccccc2)CC1,3.95%
17,OCCN1CCN(Cc2cccc(F)c2)CC1,-1.62%
18,COc1cccc(N2CCN(C3CC(=O)N(c4cccc(OC)c4)C3=O)CC2)c1 (stereo not drawn),-1.22%
19,COc1ccc(CN2CCN(C(C)C)CC2)c(OC)c1,3.06%
20,COc1cc2c(cc1OC)C(Cc1ccccc1)=NC(C)(C)C2,-4.18%
21,OCC(O)Cn1c2ccc(Cl)cc2c2cc(Cl)ccc21 (stereo not drawn),-1.97%
22,O=C1c2ccccc2-c2c1cccc2C(=O)N(CCO)CCO,0.291%
23,CC1=C(c2ccc(C)cc2)S(=O)(=O)N=C1N1CCCCC1C (stereo not drawn),5.42%
24,Brc1cccc(CN2CCOCC2)c1,-7.93%
25,CCc1ccc(C2CC(=O)NC3=C2C(=O)CC(c2ccccc2Cl)C3)cc1 (stereo not drawn),-4.16%
26,Cc1cccc(-n2nnc(C(=O)NCc3ccccc3Cl)c2N)c1,8%

row,Compound,% Inhibition @ 10 uM
1,CCC(Oc1ccccc1)C(=O)Nc1nn2c(C)nnc2s1 (stereo not drawn),0.522%
2,Cc1ccc(NC(=O)c2c(C)nn(-c3ccccc3)c2Cl)cc1,-2.53%
3,Cn1cnc2c(=O)oc3ccccc3c21,-2.78%
4,C=C(C)CSc1nc2c(C)cccc2[nH]1,6.89%
5,COc1cccc(CNC(=O)c2cnn(-c3ccccc3)c2-n2cccc2)c1OC,3.29%
6,C/C(=C\C(=O)N1CCN(C)CC1)C(=O)O,-0.128%
7,O=C1/C(=C\c2cccnc2)Sc2ccccc21,-4.4%
8,O=C1CCC(=O)N1c1cccc2c(N3C(=O)CCC3=O)cccc12,-4.46%
9,O=C(NCc1ccc2c(c1)OCO2)c1cc(O)nc2ccc(Br)cc12,-1.79%
10,C=CCN(Cc1nc(-c2ccc(C)cc2)no1)S(=O)(=O)c1c(C)cc(C)cc1C,2.41%
11,CCN1C/C(=C\c2cccn2C)C(=O)/C(=C/c2cccn2C)C1,-1.31%
12,Brc1ccc(N2N=C(c3ccccc3)CC2c2ccccc2)cc1 (stereo not drawn),-8.22%
13,Cc1ccccc1Cn1c(C)c(CNCc2ccco2)c(C(=O)O)c1C,-0.23%
14,CCC(=O)NC(C)c1nc2ccccc2n1Cc1ccccc1 (stereo not drawn),2.73%
15,COc1cc(CN(C(=S)NCC(=O)O)C2CCCC2)cc(OC)c1OC,-0.256%
16,Cc1c(C)n(CCC#N)c2ccccc12,3.72%
17,Nc1c(C(=O)Nc2ccc3ccccc3c2)sc2nc3c(cc12)CCC3,2.38%
18,COc1ccc(N2C(=O)C(Cl)=C(Nc3cc(C)cc(C)c3)C2=O)cc1,2.68%
19,CC(=O)c1ccccc1OCC(O)Cn1ccnc1C (stereo not drawn),-1.11%
20,Cc1ccc(N(CC(=O)Nc2ccc(C(N)=O)cc2)S(=O)(=O)c2ccccc2)cc1C,12.7%
21,CCCCn1c(=O)n(Cc2ccccc2Cl)c2c1c(=O)n(C)c(=O)n2C,-7.09%
22,CCc1nn2cc(-c3ccccc3OC)nc2s1,-2.71%
23,COc1nc2ccccc2nc1OC,-1.45%
24,Cn1c2c(c(=O)c3ccccc31)CCC(C)(C)O2,0.709%
